Out of some 300,000 compounds screened, about 1,200 (0.4%) were called active. This list was built around the results that the source calls inconclusive (neither active nor inactive); the mix of calls is not that of the screen. Calls follow the shape of the dose curve; as a rule, active = well fitted inhibition curve with a large enough effect; inconclusive = small, poorly fitted or top-dose-only effect, or another doubt; inactive = no such curve, though single readings can be large or run the other way. Potencies beside an inconclusive call are fits to weak or partial responses and may not hold up.
target: Lysosomal alpha-glucosidase (Homo sapiens) (UniProt P10253); test: qHTS Assay for Inhibitors and Activators of Human alpha-Glucosidase Cleavage of Glycogen; settings: recombinant GAA, glycogen substrate, Amplex Red glucose oxidase fluorescence; series mostly up to 76.4 µM
Summary of the method: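 Recombinant human enzyme (4 nM); glycogen substrate; 37 C, 40 min, pH 5.0. Readout: coupled glucose oxidase/Amplex Red fluorescence.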
Potency is read from the fitted curve at half-maximal effect.

Row | Structure (SMILES) | Potency
1 | Cc1c(C(=O)Nc2cc(S(=O)(=O)N3CCOCC3)ccc2N2CCN(C)CC2)oc2ccccc12 | inconclusive: 3.16 µM [inhibitor, full curve, poor fit]
2 | CCOc1ccc(Nc2nc(Cc3nnc(SCC(=O)c4ccc(C)c(C)c4)o3)cs2)cc1 | inconclusive: 35.2 µM [inhibitor, single point]
3 | COc1ccc(CNC(=O)CN(c2ccc(OC)cc2)S(=O)(=O)c2c(C)[nH]c(=O)[nH]c2=O)cc1 | inactive
4 | CCN1CCN(c2cc3c(cc2F)c(=O)c(S(=O)(=O)c2cc(C)cc(C)c2)cn3CC)CC1 | inconclusive: 50.1 µM [inhibitor, single point]
5 | CN(C)c1ccc(N2C(=O)CSC2=S)cc1 | inconclusive: 20 µM [inhibitor, partial curve]
6 | CCC(O)CC(C(=O)NNc1ccccc1)C(=O)NNc1ccccc1 (stereo not given) | inconclusive: 3.55 µM [inhibitor, full curve]
7 | CC1=[N+](C)N(c2ccccc2)C(=O)C1N=C/C=C/c1ccccc1 (stereo not given) | inconclusive: 15.7 µM [inhibitor, partial curve]
8 | COc1ccc(C2(C(=O)Nc3nncs3)CCCC2)cc1 | inconclusive: 17.6 µM [inhibitor, single point]
9 | Cc1sc(NC(=O)c2ccco2)c(C(c2cccnc2)N2CCCC2)c1C (stereo not given) | inconclusive: 28.2 µM [inhibitor, partial curve]
10 | COc1cc(/C=N/NC(=O)CN(Cc2ccccc2)S(=O)(=O)c2ccc3c(c2)OCCO3)ccc1O | inconclusive: 28 µM [inhibitor, partial curve]
11 | CC(C)Oc1ccc(Cc2n[nH]c(=S)n2Cc2ccccc2)cc1Cl | inconclusive: 56.2 µM [inhibitor, single point]
12 | COc1ccc(C(=O)/C=C(\C)Nc2ccc3c(c2)OCO3)cc1 | active: 35.5 µM
13 | COc1ccc(C(=O)Nc2ccccc2N2CCCC2)cc1 | inconclusive: 11.2 µM [inhibitor, partial curve]
14 | CC(=O)C1=NN(c2ccccc2)C(c2cccs2)N1c1ccc(N(C)C)cc1 (stereo not given) | inconclusive: 22.2 µM [activator, single point]
15 | Cc1[nH]n(-c2ccccc2)c(=O)c1CCOC(=O)c1ccc(C(F)(F)F)cc1 | inconclusive: 31.6 µM [inhibitor, partial curve]
16 | CCOc1cc(C2Nc3cccc4cccc(c34)N2)ccc1O | inconclusive: 39.5 µM [activator, single point]
17 | COCCCNC(=O)c1c[nH]c2ccc(S(=O)(=O)N3CCC4(CC3)OCCO4)cc2c1=O | inconclusive: 11.2 µM [inhibitor, partial curve]
18 | O=C(NNc1cccc(Cl)n1)c1c(Cl)cccc1Cl | active: 8.91 µM
19 | O=C(Cn1nc(C(F)F)cc1C(F)F)NNC(=S)Nc1ccc([N+](=O)[O-])cc1 | inconclusive: 31.4 µM [inhibitor, single point]
20 | O=c1ccn(-c2cccc(C(F)(F)F)c2)nc1-c1ccn(-c2ccccc2)n1 | inactive
21 | COc1ccc(N=C/C=C2\C=C(c3ccccc3)OC(C)(C)O2)cc1 | inconclusive: 50.1 µM [inhibitor, single point]
22 | CCOC(=O)C1CCCN(Cc2nc(N)nc(Nc3ccccc3)n2)C1 (stereo not given) | active: 3.98 µM
23 | Cc1cccc(C)c1Nc1c(-c2ccsc2)nc2ccc(Cl)cn12 | inconclusive: 7.94 µM [inhibitor, full curve]
24 | COC(=O)c1[nH]c2cc(OC)c(OC)cc2c1NC(=O)Oc1ccccc1 | active: 35.5 µM

Row | Structure (SMILES) | Potency
25 | CC(C)c1nc(SCC(=O)Nc2ccc([N+](=O)[O-])cc2Br)n[nH]1 | inactive
26 | NNC(=O)CSc1c(-c2cccs2)[nH]c2ccccc12 | inconclusive: 17.6 µM [inhibitor, partial curve]
27 | Oc1ccc(/C=N/Nc2nc(N3CCCCCC3)nc(N3CCCCCC3)n2)c(O)c1 | inconclusive: 19.8 µM [inhibitor, partial curve]
28 | CC(C)N(C(=O)Nc1ccc2nsnc2c1)C(C)C | inconclusive: 17.6 µM [activator, single point]
29 | Cc1ccc(Cl)cc1NC(=O)Cn1c(=O)c2ccccc2n2nncc12 | inactive
30 | CCOC(=O)c1c(N)sc2c1CCN(CCc1ccccc1)C2 | inconclusive: 50.1 µM [activator, single point]
31 | O=C(NNC(=O)c1cc(O)c(O)c(O)c1)NC1CCCCC1 | active: 7.94 µM
32 | O=C1OCC2=C1C(c1ccc(F)cc1)c1cc3c(cc1N2)OCCO3 (stereo not given) | inconclusive: 50.1 µM [activator, single point]
33 | O=[N+]([O-])c1cc(C(F)(F)F)ccc1NCCCCNS(=O)(=O)c1ccc2ccccc2c1 | inconclusive: 1.57 µM [inhibitor, partial curve]
34 | Cn1[nH]c(CSc2ccc(Cl)cc2)cc1=O | inconclusive: 11.2 µM [inhibitor, partial curve]
35 | Oc1csc(Cc2nc(-c3ccccc3F)cs2)n1 | inconclusive: 35.2 µM [inhibitor, single point]
36 | Oc1ccc(/C=N/N2CCN(c3ccccn3)CC2)cc1 | active: 11.2 µM
37 | Cc1cc(N2CCCC2)ccc1/C=C1/C(=O)N(C)C(=S)N1C | inactive
38 | O=S(=O)(Nc1ccc(N=Nc2ccc(O)c3ccccc23)cc1)c1ccccc1 | inconclusive: 25.1 µM [inhibitor, partial curve]
39 | Cc1c(N=Cc2cccs2)c(=O)n(-c2ccccc2)n1C | active: 25.1 µM
40 | Cc1ccc(NS(=O)(=O)c2ccc(N3CCN(c4ccc(O)cc4)CC3)c([N+](=O)[O-])c2)c(C)c1 | inconclusive: 50.1 µM [inhibitor, single point]
41 | Cc1cc(=O)[nH]c(N/N=C2/CCCC/C2=C\c2ccccc2)n1 | inconclusive: 25.1 µM [inhibitor, single point]
42 | O=C(NCc1ccc(Cl)cc1)C1CCCN(c2nc3ccccc3n3cccc23)C1 (stereo not given) | inactive
43 | CNC(=S)Nc1ccc(Br)cc1 | inactive
44 | CC1=NN(c2ccccc2)C(=O)/C1=C/C=C/C=C/N(C)C | inconclusive: 28.2 µM [inhibitor, partial curve]
45 | COc1ccc(CNC(=O)c2nn(-c3ccccc3C)nc2CO)cc1 | inactive
46 | CCOC(=O)/C(=N/Nc1ccc(OC)cc1)Sc1nnc(CCc2ccccc2)n1-c1ccccc1 | inconclusive: 39.5 µM [inhibitor, single point]
47 | CCCC1(C(=O)OCC)NC(c2ccc(N(C)C)cc2)C2C(=O)N(c3ccc4c(c3)OCCO4)C(=O)C21 (stereo not given) | inconclusive: 22.4 µM [inhibitor, partial curve]
48 | O=C(NNc1ccc([N+](=O)[O-])cc1)c1ccccc1Cl | inconclusive: 3.52 µM [inhibitor, full curve]

Row | Structure (SMILES) | Potency
49 | COc1ccc(OC)c(C(=O)CSc2nc3cccnc3n2C)c1 | inactive
50 | Cc1ccc2c(c1)C(N1CCCC1=O)CC(c1ccco1)N2 (stereo not given) | inactive
51 | Cc1c(C)c2ccc(OCC(=O)N3CCC(C(=O)O)CC3)c(C)c2oc1=O | inactive
52 | Nc1ccc(N2CCOCC2)c2nonc12 | active: 7.03 µM
53 | Cc1cc([N+](=O)[O-])ccc1-c1ccc(C2Nc3ccccc3C(=O)N2O)o1 (stereo not given) | inconclusive: 24.9 µM [inhibitor, partial curve]
54 | COc1ccc(CCNC(=O)c2cc(-c3cc(C)cc(C)c3O)n[nH]2)cc1OC | inconclusive: 28.2 µM [inhibitor, single point]
55 | CCOc1ccc(/C=N/Nc2ccccc2)cc1 | inconclusive: 7.08 µM [inhibitor, single point]
56 | CCOc1cc(/C=N/NC(=O)C(=O)N2CCCC2)ccc1O | inconclusive: 31.6 µM [inhibitor, partial curve]
57 | Cc1sc2nc(N)sc2c1C | active: 17.6 µM
58 | CCOC(=O)C[n+]1c(C)sc2ccc(OC)cc21 | inconclusive: 39.5 µM [inhibitor, single point]
59 | CCC(C)c1ccc(NC(=S)Nc2ccc(OC)cc2C)cc1 (stereo not given) | inconclusive: 31.6 µM [inhibitor, partial curve]
60 | O=C1Cc2ccccc2C(=O)N1OCc1ccc(Cl)cc1 | inconclusive: 50.1 µM [inhibitor, single point]
61 | CCOc1cc(/C=N/Nc2nnc(C)n2N)ccc1O | active: 11.1 µM
62 | O=C(NNC(=S)Nc1ccc(F)c(Cl)c1)c1ccccc1Br | inconclusive: 50.1 µM [inhibitor, single point]
63 | COc1ccc(C2C(C#N)C(C#N)N3CCCN23)cc1 (stereo not given) | inconclusive: 20 µM [inhibitor, partial curve]
64 | CCCCn1c(N)c(N(CC)C(=O)c2ccccc2C)c(=O)[nH]c1=O | inconclusive: 11.2 µM [inhibitor, single point]
65 | S=c1[nH]nc(CSCc2ccccc2Cl)n1-c1ccccc1 | inconclusive: 39.5 µM [inhibitor, single point]
66 | CCn1c(COc2cccc(C)c2)nc2ccccc21 | inconclusive: 20 µM [inhibitor, partial curve]
67 | CCN1c2ccccc2NC2C1C(C(C)=O)C(=O)N2c1ccc(Cl)cc1 (stereo not given) | active: 24.9 µM
68 | Brc1cccc(/C=N/Nc2nn[nH]n2)c1 | inconclusive: 14.1 µM [inhibitor, partial curve]
69 | N#Cc1c(N)sc2c1CCN(C(=O)OCc1ccccc1)C2 | inconclusive: 17.6 µM [inhibitor, partial curve]
70 | Cn1cc(CN2CCc3c([nH]c4ccccc34)C2C2CCCCC2)cn1 (stereo not given) | inconclusive: 28.2 µM [inhibitor, single point]

Source: PubChem BioAssay AID2100 (National Center for Advancing Translational Sciences (NCATS), 2009)
